These results are taken from ChEMBL document CHEMBL4888484, “Replenishing the malaria drug discovery pipeline: Screening and hit evaluation of the MMV Hit Generation Library 1 (HGL1) against asexual blood stage Plasmodium falciparum ,using a nano luciferase reporter read-out” (2022).

About 540 (0.36%) of roughly 150,000 compounds showed an effect of 50% or more. This is one part of the list.

This assay deals with Plasmodium falciparum. Briefly: Primary screen in NF54 nanoGlo assay, in single point, at 2uM, 72h; a lower Z score goes with more inhibition. The class given is functional, Erythrocyte. As to conditions: timepoint 72 hour.
Regarding `CCc1cnc(C)nc1N[C@H](c1ccccn1)C(C)C`, the “% Inhibition” value is -5% and the Z score is recorded as 0.91.
For `Cc1nnsc1C(=O)N1CCn2nccc2C1`, in that order: -8% and 1.19.
In the same order, the values of `COc1cccc(NC(=O)N[C@H]2[C@H](O)[C@@H](N3CCN(c4ccccc4)CC3)[C@@H]3OC[C@H]2O3)c1` are 1% and -0.09.
In the same order, the values of `Nc1nc([C@H]2CCOC2)cc(N2CCC(c3nc4ccccc4o3)CC2)n1` are 4% and -0.59.
As to `O=C1CC(c2nc(C3CCOC3)no2)c2ccccc2N1` (centres undefined), the “% Inhibition” value was determined as 3% and the Z score is recorded as -0.34.
For `CN(C)c1nn(CC(=O)Nc2ccc(F)cc2)cc1-c1ccccc1`, in that order: 7% and -0.82.
In the same order, the values of `C=CCn1cnc2c1c(=O)n(C1CC1)c(=O)n2-c1ccccc1C` are 4% and -0.54.
For `c1ccc2oc(-c3cc(-c4ccc5c(c4)OCO5)nc4ccc5ccccc5c34)cc2c1`, in that order: -5% and 1.02.
Consider `CCCNc1ncc(CN2CC[C@](C)(O)[C@@H](O)C2)cn1`, for which the “% Inhibition” value is 5% and the Z score was -0.74.
For `CC#CC(=O)N[C@H]1CC(=O)N(CC(C)(C)C)C1`, in that order: 9% and -1.69.
For `CC(C)N1C[C@@H]2C[C@H]1C(=O)NC[C@@H]1CCC[C@@H](CCOc3ccccc3C(=O)N2)O1`, in that order: -13% and 2.06.
With `COCCn1c(N)c(C(=O)CN2CC(C)OC(C)C2)c(=O)[nH]c1=O` (centres undefined), the “% Inhibition” value is reported as -11% and the Z score is 1.66.
For `Cc1cccc(OC[C@@H](O)CN(C(=O)NCc2ccc3c(c2)OCO3)C(C)C)c1`, in that order: 6% and -0.75.
In the same order, the values of `COC(=O)c1cn([C@H]2C[C@@H](C(=O)NCCc3ccc(F)cc3)N(C(C)C)C2)nn1` are 16% and -2.12.
For `CC(C)NC(=O)Cn1cnc2c(-c3ccc(Cl)cc3)cn(C)c2c1=O`, the “% Inhibition” value is on record as 4% and the Z score was -0.57.
As for `COc1ccccc1-c1nc(-c2cccc(NC(=O)Nc3ccc(F)cc3)c2)no1`, the “% Inhibition” value is on record as -4% and the Z score amounted to 0.45.
In the same order, the values of `CCOc1ccc(NC(=O)c2cccc3c(=O)c4c([nH]c23)CCC4)cc1` are -7% and 1.39.
Turning to `CC1=C(C(=O)N2CCN(c3cnccn3)CC2)OCCO1`, the “% Inhibition” value is -14% and the Z score is 2.42.
For the molecule `CC(C)C[C@H](C)N1CCN(/C(=N/c2cccc(C(=O)O)c2)NCc2ccccc2)CC1`, the “% Inhibition” value was -21% and the Z score was determined as 1.97.
In the case of `Cc1sc(N)nc1Cc1ccccc1`, the “% Inhibition” value was -19% and the Z score was determined as 1.72.
In the same order, the values of `Cc1nnc(CN(C)CCCn2cccn2)s1` are -9% and 1.48.
In the same order, the values of `CC(C)N(CCO)C(=O)Nc1cnn(C)c1` are -4% and 0.52.
For `COc1ccc(NC(=O)Cn2c(COc3ccccc3)nc3ccccc32)cc1Cl`, the “% Inhibition” value is on record as 3% and the Z score was -0.43.
For `CN(C)CCN(C)S(=O)(=O)c1c[nH]c(C(=O)N2CCCC2)c1`, in that order: -7% and 0.8.
`O=C(C1CCC1)N1CCC[C@H]1c1nc2ccccc2s1`: the “% Inhibition” value is on record as -2% and the Z score turned out to be 0.24.
In the same order, the values of `O=C(NC[C@H]1CCCO1)N1CCN(c2nccs2)C(=O)C1` are 33% and -0.8.
`c1ccc2c(OCC3CCOCC3)nccc2c1`: the “% Inhibition” value is on record as -8% and the Z score came to 1.02.
For `COc1ccc(NC(=O)c2c(C)oc3nc(C)nc(N4CCOCC4)c23)cc1OC`, in that order: -6% and 0.98.
For `O=C(COc1ccc(F)cc1)c1ccc2c(c1)N(CC(=O)N1CCOCC1)C(=O)CO2`, in that order: -8% and 1.06.
In the same order, the values of `Cc1nc(-c2nnc[nH]2)sc1C(=O)OCc1nc2ccccc2[nH]1` are 0% and -0.02.
`COc1ccc(-n2nc(C(=O)Nc3ccc(C)c(Cl)c3)cc2-c2cccnc2)cc1`: the “% Inhibition” value is listed as -5% and the Z score is 0.92.
For `COc1ccc2cc(S(=O)(=O)N3CCc4ccccc43)ccc2c1`, in that order: -17% and 2.23.
In the same order, the values of `CC1NC(=O)N(C2c3cccc(F)c3CCC2C)C1=O` (centres undefined) are 0% and -0.01.
Take `Cc1ccc(CN2CCN(C[C@H](C)C(=O)NCc3ccc(F)cc3F)C(=O)C2=O)cc1`: the “% Inhibition” value is 0% and the Z score was -0.02.
For `Cc1cccc(NC(=O)N[C@@H]2C=C[C@H](CO)C2)n1`, in that order: -17% and 1.46.
For `CCn1ncc(NC(=O)[C@@H]2NCCOc3ccccc32)c1C`, in that order: -6% and 1.19.
With `COC(=O)C(C)(C)CNCc1cccc(F)c1F`, the “% Inhibition” value is given as -15% and the Z score was 2.05.
In the same order, the values of `NC(=O)c1c(Cl)cccc1NC(=O)c1ncoc1-c1ccco1` are -3% and 0.61.
For `COC1([C@H](C)NC(=O)c2c[nH]c(C(F)(F)F)c2)CCC1`, in that order: -16% and 1.87.
In the same order, the values of `COc1cccc2c(C(=O)Nc3scnc3C)n[nH]c12` are -12% and 1.48.
As for `CN1CCCN(C(=O)C(=O)Nc2ccc(F)cc2Cl)CC1`, the “% Inhibition” value was -11% and the Z score worked out at 1.44.
For `COc1cccc(-c2nc(OC(C)C)nn2-c2cccc(NC(=O)c3ccccc3F)c2)c1`, in that order: 3% and -0.54.
